Experimental data published in PubChem BioAssay AID1656 (Sanford-Burnham Center for Chemical Genomics, 2009).
The other results are listed elsewhere or left out. The main result of the screen is listed elsewhere. These columns were measured beside it and carry no call. Most of these compounds were active or inconclusive in the main read-out, so they are no random draw.

assay: inhibitors of hepatocyte lipid droplet formation, primary screen, imaging, high-throughput imaging, BODIPY stain (AID 1656); conditions: AML12 mouse hepatocytes, oleate lipid droplets, measured here: cell count, cytotoxicity flag, at 6.5 µM;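 also: cells counted across two imaged fields per well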
Outline: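 System: AML12 hepatocytes (mouse). Probe or stimulus: oleic acid at 100 µM to induce lipid droplet formation. Times: overnight treatment with compound plus oleate. Detection: Image-based BODIPY and DAPI two-channel analysis. Evaluation: percent inhibition of filter-corrected integrated lipid droplet intensity per well.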

Compound | cell count
CCOC(=O)C1CCN(C(=O)C2(NC(=O)Nc3ccc(F)cc3F)CCCCC2)CC1 | 753 cells
NC(=O)CC(NC(=O)Cc1cccc2ccccc12)c1ccc(N2CCN(c3ccc(F)cc3)CC2)c([N+](=O)[O-])c1 (stereo not drawn) | 670 cells
Cc1ccc(Cn2nc(C)c(NC(=O)C3(C)CC3(Br)Br)c2C)cc1 (stereo not drawn) | 707 cells
COc1ccc(OC)c(CNC(=O)CCCc2cn(C)c3ccccc23)c1 | 728 cells
CCOc1cc(CNC(=O)CCCn2c(=O)c3cccn3c3cccnc32)cc(OCC)c1OCC | 666 cells
CCn1cc(C(=O)NCCCN(CC(C)C)CC(C)C)c(=O)c2cc(S(=O)(=O)N(C)C3CCCCC3)ccc21 | 679 cells
O=C(CSCC(=O)N1CCCCC1)Nc1nc(-c2ccccc2)c(-c2ccccc2)s1 | 681 cells
c1ccc(-c2nc(N3CCOCC3)cc(N3CCOCC3)n2)cc1 | 620 cells
Cc1ccc(N2C(N)=C(C#N)C(c3cc(CN4CCOCC4)cs3)C3=C2CC(C)(C)CC3=O)cc1 (stereo not drawn) | 673 cells
COc1ccc(/C=C\C(=O)NCc2ccc3[nH]c(C)cc3c2)cc1OC | 753 cells
CCc1cccc(C)c1NC(=S)NCc1cccn1C | 202 cells
CCCCCCN(C(=O)CCCCCN1C(=O)NC(c2ccccc2)C(C(=O)OCc2ccccc2)=C1C)C(C(=O)NCCCC)c1ccc(OCC(=O)OC)c(C(=O)OC)c1 (stereo not drawn) | 701 cells
O=C(CN1CCCC1)Nc1ccc(S(=O)(=O)N2CCCCC2)cc1 | 17 cells
CCCOc1cccc(C(=O)NCCNC(=O)c2ccc(C)nc2)c1 | 715 cells
Cc1ccc(C(=O)c2cc([N+](=O)[O-])ccc2N2CCCCC2)c(C)c1 | 51 cells
Cc1c(Cl)sn(-c2ccc(Cl)cc2)c1=O | 334 cells
COc1cc(NC(=O)c2cccs2)c(OC)cc1NC(=O)CCC(=O)Nc1ccc2ncccc2c1 | 668 cells
COc1ccc(NC(=O)Cc2c(Sc3ccccc3)c3ccccc3n2C)cc1 | 711 cells
CCOc1ccc(/C(O)=C2/C(=O)C(=O)N(c3ncccn3)C2c2ccccc2)cc1 (stereo not drawn) | 92 cells
COc1ccc(CCNC(=O)Cc2cccc(C(F)(F)F)c2)cc1OC | 742 cells
Cc1nc2ccccc2nc(=O)c1NNc1ccccc1 | 790 cells

Compound | cell count
N=c1scc(-c2ccccc2)n1/N=C/c1ccco1 | 616 cells
O=[N+]([O-])c1ccccc1/C=C/C=N/Nc1ccc(S(=O)(=O)Nc2ccc(Cl)cc2)cc1[N+](=O)[O-] | 674 cells
CCOc1ccc(NC(=O)CCSc2nc3c(c(CC)c2C#N)C(=O)CC(C)(C)C3)cc1 | 788 cells
Cc1cc(OCC(=O)NC2CC2)c2c(C)cc(=O)oc2c1 | 769 cells
COc1ccccc1NC1=C(N2CCCCC2)C(=O)c2ccccc2C1=O | 660 cells
COc1ccc([N+](=O)[O-])cc1NC(=O)C(C)N(C)Cc1ccc(Br)cc1 (stereo not drawn) | 272 cells
FC(F)(F)COc1nc(N2CCOCC2)nc(N(c2ccccc2)c2ccccc2)n1 | 706 cells
CCOC(=O)Nc1nc(-c2ccccc2)c(C(=O)c2ccc(Cl)cc2)s1 | 268 cells
COc1ccc(/C=C/C(=O)c2cc(F)ccc2OC(=O)c2ccccc2C)cc1OC | 292 cells
CCC(C)(C)n1nnnc1C(c1cc2ccc(C)cc2[nH]c1=O)N(Cc1cccnc1)Cc1ccco1 (stereo not drawn) | 722 cells
CS(=O)(=O)N(CC(=O)Nc1cccc(Br)c1)Cc1ccccc1 | 769 cells
O=C(Nc1ccc2c(c1)OCO2)c1cc2ncc(Br)cn2n1 | 804 cells
CCCNC1=CC(=O)CC(C)(C)C1 | 765 cells
CCOc1ccccc1-c1cc(C(=O)N/N=C/c2ccc(O)c(OC)c2)c2ccccc2n1 | 711 cells
COc1ccc(C(C(=O)NC(C)(C)C)N(Cc2ccc(C)cc2)C(=O)CCC(=O)Nc2cc(C)on2)cc1 (stereo not drawn) | 567 cells
Cc1ccccc1N/C(=N/S(=O)(=O)c1ccccc1)c1ccc(F)cc1 | 662 cells
COc1ccc(-n2nnnc2-c2cccc(OC)c2)cc1 | 293 cells
Cc1ccc(/C=N/NC(=O)c2n[nH]c3c2CCCC3)cc1 | 87 cells
Cc1ccccc1OCc1n(CC(=O)OC2CC(C)CCC2C(C)C)c2ccccc2[n+]1C (stereo not drawn) | 710 cells
CCOc1ccc(CC(=O)Nc2ccc(NC(=O)c3ccco3)cc2)cc1OCC | 724 cells
CCc1ccc(/C=N/NC(=O)c2cc(-c3ccncc3)nc3ccccc23)s1 | 239 cells

Compound | cell count
CCc1ccc(NS(=O)(=O)c2cc3c(cc2C)n(C)c(=O)c(=O)n3C)cc1 | 769 cells
Cc1c(C(=O)OCC(C)C)[nH]c2c1C(=O)CC(c1ccco1)C2 (stereo not drawn) | 268 cells
CCOc1ccc(CCNC(=O)Nc2cccc(OC)c2)cc1OCC | 805 cells
Cc1cc(NC(=O)CSc2nc(-c3ccco3)cc(C(F)(F)F)n2)no1 | 221 cells
COc1ccc(S(=O)(=O)N(c2onc(C)c2Cl)S(=O)(=O)c2ccc(OC)cc2)cc1 | 574 cells
COc1ccc(-n2c(=O)c3c4c(sc3n(CC(=O)Nc3cc(C)[nH]n3)c2=O)CCC4)c(OC)c1 | 736 cells
CCOc1cc2[nH]c(=O)n(CCCC(=O)N(C)Cc3ccccc3)c(=O)c2cc1OCC | 697 cells
CCOc1ccc(CCNC(=O)COC(=O)c2cc([N+](=O)[O-])ccc2N2CCOCC2)cc1OCC | 827 cells
CC1(C)OC(c2ccccc2)=C/C(=C/C=C2C(=O)c3ccccc3C2=O)O1 | 757 cells
CCOC(=O)Nc1sc(=S)n(C)c1C | 82 cells
COc1cc(NC(=O)c2ccco2)c(OC)cc1NC(=O)CCC(=O)Nc1cc(C)cc(C)c1 | 701 cells
Cn1ccsc1=NC(=O)c1ccc(CS(C)(=O)=O)cc1 | 172 cells
Oc1ccc(C2=NNC(=NCc3ccc4c(c3)OCO4)SC2)c(O)c1 | 195 cells
O=C(Nc1ccc(-c2nc3ncccc3o2)cc1)c1ccc(Br)o1 | 701 cells
COc1ccc(C)cc1NC(=O)Nc1ccc(C(=O)N2CCCC2)cc1 | 848 cells
Cc1nn(Cc2ccc(F)cc2)c(C)c1NC(=O)C1c2ccccc2Oc2ccccc21 | 622 cells
COc1ccc(NC(=O)Nc2cccc3ccccc23)c(OC)c1 | 863 cells
CCC(C)(C)NC(=O)C(c1ccc(C)cc1)N(CC1CCCO1)C(=O)CCC(=O)Nc1ccccn1 (stereo not drawn) | 773 cells
COc1ccc(-c2csc(NC(=O)c3ccc(OCC(=O)N4CCOCC4)c(OC)c3)n2)cc1 | 575 cells
CCC(C(=O)NCc1cccc(C)c1)n1nc(C)c2c(C)n(-c3ccccc3)nc2c1=O (stereo not drawn) | 687 cells
Cc1cccc(NC(=O)CSc2nc3ccccc3nc2N2CCCC2)c1C | 774 cells
